Measurements published in paper PMC4336329 (PLoS ONE, 2015).
Screen size: about 310,000 compounds; about 14,000 (4.5%) showed an effect of 50% or more. Effects have a minus sign here. The list shows a part of the results.

Molecular target: human ether-à-go-go-related gene (hERG) potassium channel (human, UniProt Q12809)
Assay: primary screen, population patch clamp on CHO cells stably expressing hERG
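Note: peak tail current of the secondary pulse compared with the same well before compound.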

Sequence of human ether-à-go-go-related gene (hERG) potassium channel (Q12809 whole entry, looked up): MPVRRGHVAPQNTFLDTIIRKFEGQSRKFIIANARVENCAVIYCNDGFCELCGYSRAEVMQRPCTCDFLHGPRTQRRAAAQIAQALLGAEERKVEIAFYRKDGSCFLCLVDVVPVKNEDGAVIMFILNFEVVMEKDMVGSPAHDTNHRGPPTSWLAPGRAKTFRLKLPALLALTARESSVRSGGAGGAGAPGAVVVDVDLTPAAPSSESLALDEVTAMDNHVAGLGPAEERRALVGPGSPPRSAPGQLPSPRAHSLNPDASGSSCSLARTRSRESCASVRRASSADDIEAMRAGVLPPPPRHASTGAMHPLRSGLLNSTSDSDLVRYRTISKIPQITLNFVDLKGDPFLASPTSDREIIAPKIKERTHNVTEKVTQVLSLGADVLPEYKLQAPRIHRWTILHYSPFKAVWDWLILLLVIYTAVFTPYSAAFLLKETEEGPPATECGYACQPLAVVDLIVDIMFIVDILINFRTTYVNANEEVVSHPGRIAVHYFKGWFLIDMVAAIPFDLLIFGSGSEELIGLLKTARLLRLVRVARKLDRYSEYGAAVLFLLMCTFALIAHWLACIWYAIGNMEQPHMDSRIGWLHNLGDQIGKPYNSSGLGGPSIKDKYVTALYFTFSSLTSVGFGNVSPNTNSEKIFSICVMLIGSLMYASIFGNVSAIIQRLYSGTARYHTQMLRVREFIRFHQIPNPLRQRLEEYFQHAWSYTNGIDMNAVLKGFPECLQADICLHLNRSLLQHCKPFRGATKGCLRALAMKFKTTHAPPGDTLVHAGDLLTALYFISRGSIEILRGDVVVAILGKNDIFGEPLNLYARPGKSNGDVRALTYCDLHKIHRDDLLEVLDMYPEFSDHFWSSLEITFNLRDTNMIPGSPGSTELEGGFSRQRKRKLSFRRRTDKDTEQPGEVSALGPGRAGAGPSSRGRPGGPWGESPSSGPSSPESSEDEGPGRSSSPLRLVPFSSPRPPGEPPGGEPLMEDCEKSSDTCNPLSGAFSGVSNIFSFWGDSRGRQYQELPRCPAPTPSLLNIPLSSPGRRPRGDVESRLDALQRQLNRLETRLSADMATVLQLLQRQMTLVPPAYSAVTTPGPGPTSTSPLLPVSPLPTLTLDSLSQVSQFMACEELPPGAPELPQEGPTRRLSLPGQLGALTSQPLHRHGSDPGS

| Compound | hERG current change (%, negative = inhibition) at 10uM |
| --- | --- |
| CCOc1ccc(NC(=O)COc2ccc(C(=O)NCCc3ccccc3)cc2)cc1 | -2.9% |
| COc1ccc(-n2c(C)csc2=S)cc1 | 2.76% |
| CC(=O)COc1cc2c(-c3cc4ccccc4o3)cc(=O)oc2cc1C | 20.6% |
| Cc1ccn2c(=O)c(C(=O)O)cnc2c1 | 17.1% |
| COC(=O)c1ccccc1NC(=O)CSc1nnnn1C1CCCCC1 | -48% |
| CC(=O)c1cccc(NC(=O)c2ccc(-c3ccccc3[N+](=O)[O-])o2)c1 | -17.4% |
| CCCn1nc(C(=O)NCc2ccc3c(c2)OCO3)c2ccccc2c1=O | 1.89% |
| O=C(CSc1ccc(-c2ccccn2)nn1)Nc1ccccc1 | -16.9% |
| CCN(CC)CCn1c2c(c(SCC(=O)Nc3ccc4c(c3)OCCO4)nc1=O)CCCC2 | -20.4% |
| Cn1nccc1NS(=O)(=O)c1ccc(NC(=O)C(F)(F)F)cc1 | -7.34% |
| COc1ccc(S(=O)(=O)N[C@@H](CC(C)C)C(=O)O)cc1 | 9.19% |
| CCOCCCn1cnc2c3cc(F)ccc3n(C)c2c1=O | -22.9% |
| CS(=O)(=O)N1CCN(C(=O)c2ccc(Br)s2)CC1 | -22.6% |
| COc1cccc(-c2nc3c(c(=O)[nH]c(=O)n3Cc3ccccc3)n2CCO)c1OC(F)F | 4.72% |
| COCCOc1ccc(C(F)(F)F)cc1NC(=O)COC(=O)c1cc([N+](=O)[O-])ccc1N1CCOCC1 | 5.55% |
| O=C(O)c1ccc2c(c1)OCCCO2 | 4.27% |
| COc1ccc([C@@H]2[C@@H]3C(=O)N(C(C)(C)C)C(=O)[C@@H]3[C@]3(CC(C)C)C(=O)N(c4ccc(C(F)(F)F)cc4)C(=O)N23)cc1 | 8.67% |
| O=C(Cn1cc([N+](=O)[O-])cn1)Nc1nc2ccccc2s1 | -74.6% |
| O=c1[nH]c(=O)n(Cc2ccccc2)c(O)c1/C=N/NCCO | 3.36% |
| CC(C)C1Nc2ccc(C(=O)N3CCN(c4ccccn4)CC3)cc2NC1=O (stereo not shown) | 12.2% |
| COCCn1c(SCC(=O)Nc2ccc(N3CCOCC3)cc2)nc2ccccc21 | -4.58% |
| C/C(NCC(C)(C)CN(C)C)=C(/C#N)C(=O)NCc1ccccc1 | -41.1% |

| Compound | hERG current change (%, negative = inhibition) at 10uM |
| --- | --- |
| O=C(O)c1ccc(S(=O)(=O)c2ccc3c(c2)C(=O)N(NC(=O)c2cccnc2)C3=O)cc1 | -10.8% |
| COC(=O)c1cc2nc(-c3ccccc3)cc(C(F)(F)F)n2n1 | 19.7% |
| O=S(=O)(c1ccc(N2CCC(c3ccc(Cl)cc3)=N2)cc1)N(CCO)CCO | -7.86% |
| CCc1ccc(N2CC(C(=O)N/N=C/c3ccccc3OC)CC2=O)cc1 (stereo not shown) | -7.16% |
| CCC(=O)N(Cc1cc2ccccc2[nH]c1=O)C(C)C | 9.4% |
| COc1cc(CNn2c(C)n[nH]c2=S)cc(Br)c1OCc1ccc(F)cc1 | 11.8% |
| Clc1ccccc1-c1cc(COc2ccc3ccccc3c2)no1 | 12.9% |
| NC(=O)c1nn(-c2ccccc2)nc1NC(=O)CN1CCCCC1 | -8.81% |
| CC(=O)c1cccc(NC(=S)NC(=O)C(C)C)c1 | 0.165% |
| CC[N+]1(CC)CC2=Cc3c(ccc4ccccc34)C(C)C2C1.[Br-] (stereo not shown) | -12.1% |
| COc1ccc(S(=O)(=O)N(C)CC(=O)O)c2ccccc12 | 11.2% |
| COC(=O)CC1C(=O)NCCN1C(=O)CSc1nc2ccccc2o1 (stereo not shown) | 10.6% |
| S=C1NCCc2ccccc2C1c1ccccc1Cl (stereo not shown) | -6.1% |
| O=C(NCc1cccnc1)C12CC3CC(CC(Cl)(C3)C1)C2 | 12.9% |
| CCN(C(=O)COC(=O)c1ccc(Cl)c(N)c1)C1CCS(=O)(=O)C1 (stereo not shown) | 25.1% |
| Cc1cccc(C(=O)OC(C)C(=O)NC2CCCc3ccccc32)c1O (stereo not shown) | -6.58% |
| COc1ccc(C(CNC(=O)c2ccc(C)c(S(=O)(=O)Nc3ccccc3OC)c2)N2CCCC2)cc1 (stereo not shown) | -66.2% |
| CC1=NN(c2ccccc2)C(=O)C1N=Nc1ccccc1 (stereo not shown) | 18.2% |
| O=C(NCc1cccnc1)C(=O)NCC1OCCN1S(=O)(=O)c1ccccc1 (stereo not shown) | 0.407% |
| CC(C)N(C(=O)COC(=O)c1ccc(Cl)nc1)C(C)C | 3.64% |
| Cc1ccc(-c2csc(NC(=O)CSc3nnc4c(n3)[nH]c3ccccc34)n2)cc1 | 18.6% |
| C1CC1Cc1noc(CN2CCN(CC3CC3)CC2)n1 | -8.98% |

| Compound | hERG current change (%, negative = inhibition) at 10uM |
| --- | --- |
| CCOc1ccc(S(=O)(=O)N2CCN(S(=O)(=O)c3ccc(OCC)cc3)C(C)C2)cc1 (stereo not shown) | -21.2% |
| CCn1c(CN(C)c2ccccc2)nc2ccccc21 | -2.96% |
| CN1C(=O)N(C)C(=O)C2(Cc3cc([N+](=O)[O-])ccc3N(C)C2)C1=O | 2.72% |
| CCN(CC(=O)Nc1ccc(NC(C)=O)cc1)C(=O)/C=C/c1cn(Cc2ccccc2)nc1-c1cccnc1 | -8.04% |
| COc1cc(OC)c2c(OC)cccc2n1 | -9.52% |
| N#C/C(=C(/O)CCCl)c1ccccn1 | 29.8% |
| CC(=O)N1CCc2cc(S(=O)(=O)CCC(=O)Nc3ccccc3F)ccc21 | 13.3% |
| CC(C)CC1(C)NC(=O)N(CC(=O)Nc2cccc(S(=O)(=O)N(C)c3ccccc3)c2)C1=O (stereo not shown) | -5.27% |
| COc1ccc(CNC(=O)CN(Cc2cccs2)C(=O)CCC(=O)Nc2ccccn2)cc1 | -41.1% |
| Cc1ccc(C(=O)NCc2ccncc2)cc1S(=O)(=O)N1CCCCC1 | -30.5% |
| COc1ccc(C(=O)Nc2nnc(S(=O)(=O)N3CCC(C)CC3)s2)cc1OC | 4.93% |
| O=C(COC(=O)c1ccc(N2CCOCC2)c([N+](=O)[O-])c1)Nc1ccc2c(c1)OCO2 | 4.1% |
| CS(=O)(=O)N1CCC(C(=O)Nc2ccc(C(N)=O)cc2)CC1 | 13.2% |
| COC(=O)Nc1ccc(SCC(=O)c2ccccc2)cc1 | 13.3% |
| O=C1CCc2ccc(NS(=O)(=O)c3ccc(F)cc3)cc2N1 | 5.58% |
| COCCN(C(=S)Nc1cc(C)ccc1C)C(C)c1cccnc1 (stereo not shown) | -25.4% |
| OCC1OC(n2cnc3c(NC4CCCC4)ncnc32)C(O)C1O (stereo not shown) | 3.62% |
| O=C1C=CC(=O)N1N(c1ccccc1)c1ccccc1 | -9.09% |
| O=C(N=C1SC2CS(=O)(=O)CC2N1c1cccc(Cl)c1Cl)C1CCCO1 (stereo not shown) | 4.19% |
| COc1cc(C)c(S(=O)(=O)Nc2ccccc2F)cc1C | 6.11% |
| COc1cc(OC)c(OC)cc1/C=N/Nc1ccc(Cl)nn1 | 15.3% |
| Cc1cc(C)cc(C(=O)Nc2cccnc2)c1 | 10.1% |

| Compound | hERG current change (%, negative = inhibition) at 10uM |
| --- | --- |
| NC(=O)C1(N2CCCCC2)CCN(Cc2ccccc2)CC1 | 2.53% |
| NS(=O)(=O)c1ccc(NC(=S)NCc2ccccc2)cc1 | 21% |
| COCCNC(=O)C(=O)NCC(c1ccc2c(c1)OCO2)N1CCN(c2ccc(F)cc2)CC1 (stereo not shown) | -34.6% |
| CC(=O)Nc1ccc(N2C(=O)CC(Sc3nccc(C)n3)C2=O)cc1 (stereo not shown) | 12.3% |
| CC1=NN(C(=O)Cn2nc([N+](=O)[O-])c(Br)c2C)C(O)(C(F)(F)F)C1 (stereo not shown) | -2.33% |
| Cc1cccc(C(=O)O/N=C(\c2ccccc2)c2cccnc2)c1 | -39.9% |
| CCOC(=O)C(O)(CC(=O)c1ccc(OC)cc1)C(F)(F)F (stereo not shown) | 4.98% |
| O=C(O)C(=O)O.OC(Cn1cnnc1)c1ccccc1 (stereo not shown) | 10.2% |
| CC1=NN(C(N)=S)C(=O)C1N=Nc1c(Br)cc(Br)cc1Br (stereo not shown) | -8.08% |
| COc1ccc(N2C(=O)CSC2c2ccc(F)cc2)cc1 (stereo not shown) | 0.924% |
| CCO[C@@H]1OC(C(=O)N2CCOCC2)=C[C@H](c2ccccc2)[C@H]1CCCO | 20.2% |
| COc1ccc(/C=N/N=C/c2ccc(OC)c(OC)c2)cc1OC | 11.7% |
| NS(=O)(=O)c1ccc(CCNC(=O)CSc2nc3ccccc3c(=O)n2CCC(=O)N2CCCCC2)cc1 | 19.8% |
| CCCc1c(C(=O)N/N=C/c2ccccc2C(F)(F)F)nnn1-c1nonc1N | 11.8% |
| O=S(=O)(NCCc1ccccc1)c1cccc2cccnc12 | -17.4% |
| COc1ccccc1-c1cc(N)n(S(=O)(=O)c2ccc(F)c(C)c2)n1 | 3.04% |
| Cc1c(N=Cc2ccc[nH]2)c(=O)n(-c2ccccc2)n1C | 13.6% |
| CC(C)CNC(=O)c1cccc(NC(=O)c2ccc(Cl)c([N+](=O)[O-])c2)c1 | -49.9% |
| S=C(Nc1ccc(Cl)cc1)NC1CCCCC1 | 5.84% |
| COc1ccccc1C(=O)N/C(=C/c1ccccc1)C(=O)Nc1ccc(C(=O)O)cc1 | 21.8% |
| CCN(CC)C(=O)c1ccc(COc2ccccc2Cl)o1 | -18.1% |
| Cc1sc(NC(=O)COc2ccccc2)c(C#N)c1-c1ccccc1 | 2.55% |
